The structures appear in SMILES notation. In all, about 13,000 compounds were measured (“IFI”: median about 4, highest 2% from about 17 on). This is one part of the list.

The assay is described as follows: GSK_TCMDC: Inhibition Frequency Index (IFI). The number of non-kinase HTS assays where a compound showed > 50 % inhibition, expressed as a percentage of the number of such assays in which the compound was tested (-0 is zero). It is filed as functional.
Take `O=S(=O)(Nc1cccc(CCN2CCCCC2CCN2CCCC2)c1)c1ccc(-c2ccccc2)cc1` (configuration not stated): the IFI stood at 14.5%.
For `Cc1cc(NCCC(=O)Nc2ccccc2)nc(NCCc2ccccc2)n1`, the IFI was found to be 2.27%.
With `CN(C)CCC1CCCc2ccc(NC(=O)Nc3cccc(Cl)c3Cl)cc21` (configuration not stated), the IFI stood at 3.88%.
In the case of `CCC1N=C(N)N=C(N)N1OCCCOc1c(Cl)cc(Cl)cc1Cl` (configuration not stated), the IFI is 5.76%.
`CC[C@H]1CN(CCCC(=O)c2ccccc2)CC[C@H]1CCCc1ccnc2ccc(OC(=O)c3ccccc3)cc12` had an IFI of 12.2%.
In the case of `CC(C)(C)OC(=O)NCc1ccc(Nc2nnc(-c3cccc(C(=O)NCCC(c4ccccc4)c4ccccc4)c3)o2)cc1`, the IFI came to 6.67%.
Under `Cn1cnc2c(SCc3ccc(OCc4ccccc4)cc3)ncnc21` stands 5%; under `Nc1nccc2ccc(-c3cccc(OCc4ccccc4)c3)cc12`, 19.8%.
For `CCOC(=O)c1c(CN(CC)CC)n(-c2ccccc2)c2cc(Br)c(O)cc12`, the IFI came to 1.48%.
Compound `c1ccc(CNc2nc(NCCc3c[nH]cn3)nc(NCc3cccc4ccccc34)n2)cc1` came in with an IFI of 1.5%.
Take `O=C(Nc1ccc(N2CCN(c3ncccc3C(F)(F)F)CC2)nc1)c1cccs1`: the IFI was 14%.
Regarding `O=C(Cn1nc(Br)nc1[N+](=O)[O-])NCC1CCCCC1`, the IFI turned out to be 2.99%.
Take `C=CCn1c(C)cc(C(=O)COc2ccc(S(=O)(=O)N3CCOCC3)cc2[N+](=O)[O-])c1C`: the IFI was 0.95%.
Consider `Cc1cn(CC(=O)Nc2cccc(-c3cccc(-c4nc5cccc(C)c5[nH]4)c3)c2)c(=O)[nH]c1=O`, for which the IFI was -0%.
Compound `CCOc1ccc(N2C(N)=NC(N)=NC2(C)C)cc1` came in with an IFI of -0%.
In turn, `COc1ccc(OC)c2c1CC1NCC2c2c(OC)ccc(OC)c21` (configuration not stated) returned an IFI of 0%.
As for `CN(C)c1ccc(-c2csc(C(=O)NC3CCN(Cc4ccc(C(C)(C)C)cc4)C3)c2)cc1` (configuration not stated), the IFI came to 14.6%.
Compound `COc1ccc2nccc([C@@H](O)CN3CCC(NC(=O)c4ccc(-c5ccccc5)s4)CC3)c2c1` came in with an IFI of 5.22%.
Regarding `O=C(NC1CCN(Cc2ccc3c(c2)OCCO3)CC1)c1ccc(-c2cccc(Cl)c2)s1`, the IFI was found to be 15.2%.
For the compound `NC(=O)CCC(NC(=O)CNC(=O)Nc1cccc(C(F)(F)F)c1)C(=O)O` (configuration not stated), the IFI is 19.9%.
Under `O=C(NCCCCN1CCC(c2ccc(-c3ccco3)cc2)CC1)c1ccc(NC(=O)c2ccc(Cl)cc2)cc1` stands 5.98%; under `COC(=O)c1sc(-c2ccc(Cl)cc2)cc1N(CCCN1CCC(N2CCCCC2)CC1)S(=O)(=O)c1ccc(C)cc1`, 11.6%; under `CCn1cc(CN2C(=O)C(c3ccccc3)(c3ccccc3)N=C2N)cn1`, 0.85%.
In turn, `O=C(NCc1ccc(Cl)cc1)c1ccc(CN2CCCN(CC3CCCCC3)CC2)cc1` came in with an IFI of 3.31%.
Take `CCCc1cc(NC2CCN(C)CC2)nc(Nc2ccc(F)cc2)n1`: the IFI came to 2.99%.
On to `Cc1c2ccncc2c(C)c2c1[nH]c1cc(Cc3ccccc3)c(O)cc12`, for which the IFI is 11.8%.
`COc1cc(Nc2nccc(N3CCC(NC(=O)c4cc5ccccc5s4)C3)n2)cc(OC)c1OC` (configuration not stated) yielded an IFI of 4.55%.
Under `CN1CCN(c2ccc(CNc3ccc4ncc(-c5ccc(OC(F)(F)F)cc5)n4n3)cc2)CC1` stands 5.51%; under `O=[N+]([O-])c1ccccc1/C=N/Nc1ccnc2ccc(C(F)(F)F)cc12`, 0.74%; under `O=C(Cn1c(CCc2cccc(F)c2F)nc(=O)c2ccccc21)N(CCCN1CCCCC1)Cc1ccc(-c2ccc(C(F)(F)F)cc2)cc1`, 10.4%.
`CCN(CC)CCN(Cc1ccc(-c2ccc(C(F)(F)F)cc2)cc1)C(=O)Cn1c(CCc2cccc(F)c2F)nc(=O)c2cc(C)ccc21`: the IFI was found to be 3.73%.
`Clc1ccc2c(NN=Cc3ccco3)ccnc2c1` yielded an IFI of 4.79%.
On to `Cc1ccc2c(=O)c3cc(C)ccc3[nH]c2c1`, for which the IFI stood at 1.46%.
`COc1ccc(C2CCN(CCCCNC(=O)c3ccc(NC(=O)c4ccc(Cl)cc4)cc3)C2)c(OC)c1` (configuration not stated) showed an IFI of 2.65%.
Regarding `CN1C(=O)C(=O)N(CCCCCONC(=N)N)C1=S`, the IFI came to 0.71%.
The same measure for `Cc1ccc(CNC(=O)c2ccc(CN3CCCN(Cc4ccsc4)CC3)cc2)cc1`: 4.03%.
The same measure for `CN(C)CCN(Cc1ccccc1)c1ccc([N+](=O)[O-])cc1C(F)(F)F`: 3.5%; for `CC(C)c1ccc2c(c1)c(SC(C)(C)C)c(CC(C)(C)C#N)n2Cc1ccc(Cl)cc1`: 0.76%; for `CCCCOP(=O)(COc1ccc(CCN(CC(O)COc2cccc3[nH]c4ccccc4c23)CC(O)COc2cccc3[nH]c4ccccc4c23)cc1)C1CCCCC1` (configuration not stated): 1.5%.
In the case of `CC(C)COc1ccc(Cl)cc1Cc1ccc(-c2nc3ccc(F)c(F)c3[nH]2)o1`, the IFI turned out to be 11.3%.
`CC1C(c2cccc(Cl)c2)OCC(C)(C)N1C(=O)CCN1CCCCC1` (configuration not stated) yielded an IFI of 0.75%.
`CO/C(=C\C=C\c1cc2cc(Cl)c(Cl)cc2[nH]1)C(=O)NCCCN1CCN(c2cccc(CCO)c2)CC1` gave an IFI of 13.5%.
`OC(CNc1ccnc(Nc2cccc(Cl)c2)n1)c1cccc(F)c1` (configuration not stated) showed an IFI of 12.4%.
`COc1cc2nc(N3CCC(CNC(=O)c4cc(Br)c(Br)s4)CC3)nc(N)c2cc1OC` showed an IFI of 8.62%.
With `CN(C)S(=O)(=O)c1ccc(N2CCN(CCC3(c4cccc(F)c4)CCN(C(=O)C(C)(C)C)CC3)CC2)c2nonc12`, the IFI was determined as 9.79%.
Under `N#Cc1ccc(N2CCN(Cc3ccc(-c4cccc(-c5nc6ccccc6[nH]5)c4)cc3)CC2)nc1` stands 2.86%.
Regarding `Cc1ccc(Cc2c[nH]c(NCCSCc3ccc(CN4CCOCC4)o3)nc2=O)cn1`, the IFI was 0%.
On to `CC(=O)c1cccc(NC(=O)c2ccc(Cl)c(S(=O)(=O)N3CCc4ccccc43)c2)c1`, for which the IFI was 3.54%.
Compound `O=C(Nc1ccc(Cl)cc1)N(CC1CC2CCC(C1)N2Cc1ccc(C(F)(F)F)cc1)c1ccc(N2CCOCC2)c(F)c1` (configuration not stated) came in with an IFI of 7.87%.
On to `COc1cc(C2NCC3(CCOCC3)c3cc4c(cc32)OCCO4)cc(OC)c1OC` (configuration not stated), for which the IFI was 2.78%.
On to `COCCN1CCC(N(Cc2ccc(-c3ccc(C(F)(F)F)cc3)cc2)C(=O)Cn2c(CCc3cccc(F)c3F)cc(=O)c3c2CCC3)CC1`, for which the IFI is 1.45%.
Compound `CC(=O)N[C@H](C(=O)Nc1ccc(-c2cccc(-c3nc4cccc(C)c4[nH]3)c2)cc1)C(C)C` displayed an IFI of 1.8%.
Under `Cn1cncc1C(=O)Nc1cccc(-c2ccc(-c3nc4cc(F)ccc4[nH]3)cc2)c1` stands 2.68%; under `CS(=O)(=O)Cc1ccc(Nc2nccc(-c3c(-c4cccc(C(=O)Nc5c(F)cccc5F)c4)nn4ccccc34)n2)cc1`, 7.87%; under `Cc1cccc2nc(-c3cccc(-c4ccc(NC(=O)Cc5c[nH]cn5)cc4)c3)[nH]c12`, 1.85%.
In turn, `COc1cc(N(Cc2ccccc2C)S(=O)(=O)Cc2ccccc2[N+](=O)[O-])c(OC)cc1Cl` showed an IFI of 0.68%.
Under `CN(C)CCc1coc2ccc(C(=O)Nc3ccc(-c4ccc(O)cc4)cc3)cc12` stands 4.38%.
Take `CC(C)(CNC(=O)/C=C/c1ccc(Cl)c(Cl)c1)CNc1cc(=O)c2ccccc2[nH]1`: the IFI worked out at 3.6%.
Compound `CN(C)CCC(O)(c1ccc(Br)cc1)c1cccnc1` (configuration not stated) registered an IFI of 0%.
`O=[N+]([O-])c1cccc(Nc2cncc(-c3ccc(CO)cc3)c2)c1` yielded an IFI of 4.55%.
Consider `O=C(Cc1c[nH]cn1)Nc1cccc(-c2ccc(-c3nc4cc(C(F)(F)F)ccc4[nH]3)cc2)c1`, for which the IFI was found to be 7.41%.
`CC(C)CN1CCCN(Cc2cccc(NC(=O)c3cc4ccccc4s3)c2)CC1` came in with an IFI of 3.05%.
Regarding `CCCCN(CCCC)CCNC(=O)c1ccc(-c2nc3cc(Cl)ccc3[nH]2)c(OCC)c1`, the IFI was 0.72%.
Under `O=C1C(c2ccccc2)=C(Nc2ccc(Cl)cc2)c2ccccc21` stands -0%; under `CN(C)CCCSc1ccccc1NC(=O)C=Cc1ccccc1`, -0%; under `Clc1cc(Nc2ncnc3sc(C#Cc4ncc[nH]4)cc23)ccc1OCc1ccccn1`, 0.88%.
Under `CCNc1cc(C)nc(Nc2ccc(NS(=O)(=O)c3cc(OC)ccc3OC)cc2)n1` stands 13.5%.
As to `Fc1ccc2[nH]c(-c3cccc(-c4cccc(CNCc5cnn(-c6ccccc6)n5)c4)c3)nc2c1`, the IFI turned out to be 3.28%.
Under `Cc1cc(C)c(NC(=O)NC2CCN(CCCCCNC(=O)/C=C/c3ccc(Cl)c(Cl)c3)CC2)c(C)c1` stands 3.33%; under `Cc1cc(NCc2ccc(F)cc2)nc2cc(O)ccc12`, 10.7%; under `Cc1cc(-c2ccc(CNC3CCN(C)CC3)cc2)ccc1S(=O)(=O)NCc1ccccc1`, 9.52%.
The same measure for `COC(=O)COc1cc(C(=O)NCCCCN2CCC(c3ccc4c(c3OC)CCCC4)CC2)ccc1-c1ccc(Cl)cc1`: 12.9%; for `COc1ccc2nccc([C@@H](O)CN3CCC(NCc4ccc5nc[nH]c(=O)c5c4)CC3)c2c1`: -0%.
`CN=c1nc(NN=Cc2ccccc2Cl)[nH]c(=Nc2cccc(C(F)(F)F)c2)[nH]1`: the IFI was found to be 3.2%.
Turning to `COc1ccc(Nc2ncc3c(-c4cccc(NC(=O)CC(C)C)c4)c[nH]c3n2)cc1OC`, the IFI came to 6.62%.
Regarding `CNCCNc1nccc(N2CCc3ncnc(Nc4ccc(OCc5cccc(F)c5)c(Cl)c4)c3C2)n1`, the IFI came to 12.4%.
`N#Cc1ccccc1N1CCN(C2CCC(NC(=O)c3n[nH]c4cc(C(F)(F)F)ccc34)CC2)CC1` (configuration not stated) came in with an IFI of 1.75%.
`NCc1ccc(CNCc2cccc(-c3cccc(-c4nc5cc(F)ccc5[nH]4)c3)c2)cc1` returned an IFI of 6%.
For the compound `Cc1cccc2nc(-c3cccc(-c4ccc(NC(=O)c5cnccc5C(F)(F)F)cc4)c3)[nH]c12`, the IFI was 8.93%.
Consider `CCCCCCCN1CC[C@@H](CCCc2ccnc3ccc(OCC4CCCNC4)cc23)[C@@H](CC)C1` (some centres not stated), for which the IFI turned out to be 9.35%.
As to `CC(=O)Nc1cc(C(=O)Nc2ccc(C3=NCCN3)cc2)ccc1C(=O)Nc1ccc(C2=NCCN2)cc1`, the IFI came to 1.45%.
Under `Cc1nn(CCOC(=O)NC(NCC2COc3ccccc3O2)C(Cl)(Cl)Cl)cc1[N+](=O)[O-]` (configuration not stated) stands 1.53%.
With `CC(C)Cn1cc(C2CCN(CCN3CCC(CNC(=O)c4ccc(NC(=O)c5cc(Cl)cc(Cl)c5)cc4)CC3)CC2)c2ccccc21`, the IFI was 8.18%.
The compound `Cc1cc(-c2nc3cncc(-c4cccc(CN5CCCC5Cc5cccnc5)c4)c3n2C)nn1C` (configuration not stated) gave an IFI of -0%.
Under `O=C(N/C=N/c1cc([N+](=O)[O-])c(-c2cccnc2)n1-c1ccc(O)cc1)c1ccccc1` stands 1.47%; under `CCC[C@@H]([C@@H](CC(C)C)C(=O)N[C@@H](CCCCNC(=O)c1ccccn1)C(=O)Nc1nccs1)N(O)C=O`, 2.99%; under `CNC(=O)c1cnc(Nc2ccc(N3CCN(C)CC3)cc2)nc1Nc1cccc([N+](=O)[O-])c1`, 3.73%.

Values taken from ChEMBL document CHEMBL1157539, “Thousands of chemical starting points for antimalarial lead identification” (Nature, 2010).
